# Data reported in the supplement of paper PMC5499739.
# Over roughly 16,000 sequences, “Z-score” has its median near -0.37; the highest 2% begin near 3.1. The list shows a part of the results.
# System: RBM10 RRM1-ZnF-RRM2 (GST-tagged construct)
# Assay: RNAcompete 7-mer binding Z-score; higher = stronger binding preference
# Procedure, shortened: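 A one-sided Z-score for enrichment, taken across the probes containing each heptamer motif, was assigned to every such motif. The RNA came from a designed pool of 241 399 sequences up to 41 nt (1.5 nmol), bound by 20 pmol of GST-tagged RBM10 constructs in 1 ml Hepes pH 7.8 buffer with glutathione Sepharose beads for 30 min at 4°C. Four 2-min washes at 4°C preceded identification of bound RNA by microarray hybridisation.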
row,Sequence,RNAcompete 7-mer binding Z-score
1,UGUCCCG,-0.621
2,CAAGGAC,0.847
3,CCUCAGU,-0.825
4,GUUCGCG,-0.366
5,AUUCUGG,-0.18
6,ACGCUCA,-0.701
7,UCCGGGC,-0.078
8,GUGUAGG,3.05
9,AUUACGA,-0.293
10,UGGUCCG,-0.0161
11,AAGGAGU,3.12
12,GUUUACU,-0.57
13,GGUACAU,0.891
14,GAACUGC,-0.508
15,AACGAUA,0.0532
16,GCUGCUG,-0.377
17,CUCGUUG,-0.511
18,UGCCGAU,-0.708
19,AGUCGAA,0.115
20,UGUAAUA,-0.475
21,CAACGUC,-0.53
22,ACCUCUA,-0.908
23,UCCGACU,-0.752

row,Sequence,RNAcompete 7-mer binding Z-score
1,CACUAGC,-0.635
2,AGUAACA,0.192
3,UAGUUGU,-0.49
4,GAAUGGA,3.56
5,UAUAACG,-0.446
6,AUGUGCA,0.283
7,AGGCCUG,-0.632
8,CUUUAUC,-0.934
9,AAAAACA,-0.0525
10,GUCAGAC,-0.22
11,CUUGUGA,-0.694
12,AAGAGAA,0.45
13,AACAACG,0.0277
14,GUACUUU,-0.694
15,UACUAAU,-0.57
16,GUGCUGG,1.47
17,CACGUAG,0.268
18,UCCUGAC,-0.788
19,CACAUCG,-0.548
20,AAGAUCG,0.0641
21,GCCGCGC,-0.577
22,UAAGAAG,0.64
23,UGGGGCU,2.16

row,Sequence,RNAcompete 7-mer binding Z-score
1,UUGUCCG,-0.744
2,AUGUGUA,0.428
3,GCACCAA,-0.369
4,GCGCUGG,0.705
5,GUAAUGA,0.436
6,AACCCCG,-0.617
7,UGUUCCA,-0.712
8,GAAAAGG,4.73
9,GGUGUAC,1.44
10,GCUAUCG,-0.551
11,UCAACUC,-0.675
12,AAGAUAC,-0.253
13,GACGCCU,-0.989
14,CUACUUG,-0.839
15,AAUCCCU,-0.741
16,CCAUCCG,-0.73
17,GAUGUCG,-0.0379
18,AGAUUGG,2.14
19,CUGCCUU,-0.938
20,GUACGAU,0.323
21,UCAAUGC,-0.533
22,AUCCAGG,0.508
23,AGCGAAC,0.137

row,Sequence,RNAcompete 7-mer binding Z-score
1,CUCUGAA,-0.883
2,GGUUAAA,1.37
3,GUGGCAG,1.99
4,CAUCACC,-0.77
5,ACCCGGG,0.00944
6,UACACAC,-0.42
7,CCCCAUU,-0.795
8,UCAGGCC,-0.49
9,GCGGAAU,1.17
10,UGCUCUU,-0.938
11,UAGCCCA,-0.799
12,UUCUAUC,-0.814
13,UGGCAUA,0.468
14,UUAAGAC,-0.621
15,AUCCUGU,-0.887
16,CCAGCCC,-0.468
17,GAUGCCG,-0.395
18,ACGACCU,-0.952
19,GCGAGUC,0.235
20,UGCAUGC,-0.734
21,UCCGCAU,-0.865
22,CUGGUGG,1.22
23,CCGAGGU,0.487
